In this test the test system is C3H/He mice, Gardner lymphosarcoma 6C3HED ip, survival T/C. The experiment in a line: NCI In Vivo Anticancer Drug Screen. Data for tumor model Lymphosarcoma Gardner 6C3HED (intraperitoneal) in C3H/He mice. The following applies: endpoint: survival time, mean or median, schedule: Q01DX010 (ip), higher = longer survival. How it is done: The antitumor activity of compounds was measured in mice bearing transplantable tumors. Survival or tumor size were measured and the results are expressed as the measurement made in the treated group (T) divided by the measurement made in the vehicle treated control group (C). The tumor model used in this assay is Lymphosarcoma Gardner 6C3HED (intraperitoneal) in C3H/He mice

Inconclusive results and toxic doses are left out. A number of entries come with more than one value. This list holds those alone. An entry can have further records. The values listed for one entry are repeated measurements in other runs, samples, wells, individuals or studies.

`Nc1nc(N)c2nc(CNc3ccc(C(=O)NC(CCC(=O)O)C(=O)O)cc3)cnc2n1` (centres undefined): the T/C (dose: 0.2 mg/kg/injection, vehicle: other) was 120 % of control and 150 % of control.
Regarding `NC(Cc1ccc(N(CCCl)CCCl)cc1)C(=O)O` (centres undefined), the T/C (dose: 2.5 mg/kg/injection, vehicle: saline) was 107 % of control and 150 % of control.
Turning to `CS(=O)(=O)OCCC(=O)N1CCN(C(=O)CCOS(C)(=O)=O)CC1`, the T/C (dose: 100.0 mg/kg/injection, vehicle: saline) is 105 % of control and 165 % of control.
As for `Cc1cc2nc3c(=O)[nH]c(=O)nc-3n(CC(O)C(O)C(O)C(O)CO)c2cc1C` (centres undefined), the T/C (dose: 25.0 mg/kg/injection, vehicle: saline) was 96 % of control and 302 % of control.

The values above are taken from PubChem BioAssay AID230 (DTP/NCI, 2004).
